# Data published in the supplement of paper PMC4604168 (melanoma cell lines).
# This is one part of the list. Most values come without repeats; read them as rough.
# Assays:
# Assay in all cases: cell count relative to DMSO control; melanoma cells; higher = more viable cells
# Settings in all cases: library dose: low library concentration; 72 h
# COLO792 = system: COLO792
# COLO800 = system: COLO800
# COLO829 = system: COLO829
# G361 = system: G361
# IPC-298 = system: IPC-298
# IST-MEL1 = system: IST-MEL1
# LB2518-MEL = system: LB2518-MEL
# LOXIMVI = system: LOXIMVI
# MEL-HO = system: MEL-HO
# MZ2-MEL = system: MZ2-MEL
# 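Further: cell number obtained by counting DAPI-stained nuclei in high-throughput microscope images with image analysis software, screen run in 1,536-well plates.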
SMILES,cell count (COLO792) [%],cell count (COLO800) [%],cell count (COLO829) [%],cell count (G361) [%],cell count (IPC-298) [%],cell count (IST-MEL1) [%],cell count (LB2518-MEL) [%],cell count (LOXIMVI) [%],cell count (MEL-HO) [%],cell count (MZ2-MEL) [%]
"COC(=O)c1sccc1S(=O)(=O)Nc1ccc(Nc2ccccc2)cc1OC + Oc1nc(-c2ccc(C(F)(F)F)cc2)nc2c1CSCC2 [XAV939] (first compound 1 µM, partner dose 2 µM)",84.9,138,92.6,90.4,99.4,97.4,95.4,129,92.1,92.5
"N#Cc1c(O)c2c(-c3ccc(-c4ccccc4O)cc3)csc2[nH]c1=O + COC(=O)c1sccc1S(=O)(=O)Nc1ccc(Nc2ccccc2)cc1OC [GSK0660] (first compound 2 µM, partner dose 1 µM)",101,118,97.6,113,105,109,–,138,99.7,–
"COC(=O)c1sccc1S(=O)(=O)Nc1ccc(Nc2ccccc2)cc1OC + O=C(O)C(=O)Nc1sc2c(c1C(=O)O)CCNC2 [TCS401] (first compound 1 µM, partner dose 1.66667 µM)",112,75.6,87.7,86.3,101,99.6,–,90.3,94,–
